In test [1] the test system is DENV-2 strain D2Y98P. In words: Viral titer reduction assay, DENV-2 strain D2Y98P. Particulars: Dengue virus, DENV2, Huh-7; viral titer reduction assay on Huh7 cells. Here is the method: Viral Titer Reduction Assay. Huh7 cells were seeded in a 96-well plate. The next day, cells were infected with DENV-2 strains NGC or D2Y98P at a MOI of 0.3 in the presence of 2-fold serial dilutions of compounds. Experiments were performed in triplicates. After incubation at 37° C. for 48 h, cell culture fluids were harvested. The infectious viruses in the culture fluids were determined by plaque assay using a protocol as described previously.^48 The EC50 values were calculated using four parameter logistic regression in GraphPad software Prism 8.0.

For test [2], the system named is DENV-2 strain D2Y98P. The experiment in a line: In vivo efficacy, dengue viremia A129 mouse model. The conditions noted are these: 100 mg/kg orally twice daily for 3 days. As to the method: In Vivo Efficacy Studies. Animal studies were performed as approved by the University of Texas Medical Branch (UTMB) Institutional Animal Care and Use Committee (IACUC). All efforts were made to minimize animal suffering. The in vivo efficacy of compound 15 was evaluated in a dengue viremia model.^57 3-week-old A129 mice (with knockout of IFN-α/β receptors) and DENV-2 strain D2Y98P were used in this model. The virus stock was propagated in BHK-21 cells grown in RPMI 1640 medium. 100 µL (10^7 PFU/ml) of D2Y98P viruses were injected subcutaneously (S.C.) into the mice. The mice (n = 6 per group) immediately were dosed orally twice daily (BID) with compound 15 (100 mg/kg) or the vehicle for 3 days. The compound was reconstituted as a suspension in the vehicle solution containing 2.5% DMSO, 50% PEG-400 and 47.5% DPBS. On day 3 post-infection (p.i.), the mice were bled via the retro-orbital (R.O.) route. The plasma was collected and used for measuring the viral loads in the sera (Viremia) by plaque assay. The means and standard deviations were presented. Statistical analysis was performed by an unpaired parametric test using Prism software (GraphPad). Mouse weight was carefully monitored for 12 d after infection. A two-way ANOVA with multiple comparison was performed to analyze the statistically significant difference between compound 15 and vehicle-treated groups.

Structures are written as SMILES.

For `CC(C)CCN1C(=O)[C@]2(CC(=O)Nc3c2nnn3[C@@H](C)c2ccc(Cl)cc2)c2cc(Cl)ccc21` [Compound 15, (R)-5'-Chloro-3-((S)-1-(4-chlorophenyl)ethyl)-1'-isopentyl-4,6-dihydrospiro[[1,2,3]triazolo[4,5-b]pyridine-7,3'-indoline]-2ʹ,5(3H)-dione], the EC50 (usually the concentration at which the effect is half-maximal) in test [1] is approximately 100 nM. For the same compound, in test [2], the “morbidity caused by DENV-2 infection (mouse body weight)” value is on record as “eliminated the morbidity”. The reduction of viremia in test [2] (day 3 p.i., vs vehicle, p = 0.0051) amounted to 2.4 log.
